# This is one part of the list.
# B1: PhoQ; a variant is named by its letters at X, in order, P23837 (parent)
# chain: MKKLLRLFFPLSLRVRFLLATAAVVLVLSLAYGMVALIGYSVSFDKTTFRLLRGESNLFYTLAKWENNKLHVELPENIDKQSPTMTLIYDENGQLLWAQRDVPWLMKMIQPDWLKSNGFHEIEADVNDTSLLLSGDHSIQQQLQEVREDDDDAEMTHSVAVNVYPATSRMPKLTIVVVDTIPVELKSSYMVWSWFIYVLSANLLLVIPLLWVAAWWSLRPIEALAKEVRELEEHNRELLNPATTRELTSLVRNLNRLLKSERERYDKYRTTLTDLTHSLKTPLXXLQXXLRSLRSEKMSVSDAEPVMLEQISRISQQIGYYLHRASMRGGTLLSRELHPVAPLLDNLTSALNKVYQRKGVNISLDISPEISFVGEQNDFVEVMGNVLDNACKYCLEFVEISARQTDEHLYIVVEDDGPGIPLSKREVIFDRGQRVDTLRPGQGVGLAVAREITEQYEGKIVAGESMLGGARMEVIFGRQHSAPKDE
# Variants of: B1
# Experiment: enrichment ratio after two sorts for PhoP signalling (ratio (wild type AVST 3.29)); higher = more functional
# Settings: with PhoP (E. coli)
row,Variant,enrichment ratio
1,PNGA,≤ 0.25
2,MLWQ,≤ 0.25
3,GVPE,≤ 0.25
4,DNIM,≤ 0.25
5,FTHD,≤ 0.25
6,WIHI,≤ 0.25
7,VLHN,≤ 0.25
8,WQWP,≤ 0.25
9,VCDP,≤ 0.25
10,FWTM,≤ 0.25
11,YMDC,≤ 0.25
12,IEEE,≤ 0.25
13,FGMI,11.8
14,TNIY,≤ 0.25
15,EETW,≤ 0.25
16,VECI,3.1
17,MGNT,≤ 0.25
18,NCGH,≤ 0.25
19,MHTN,≤ 0.25
20,QPIT,≤ 0.25
21,LYVF,≤ 0.25
22,DGNY,≤ 0.25
23,IFAE,≤ 0.25
24,KAEH,≤ 0.25
25,YSKD,≤ 0.25

row,Variant,enrichment ratio
1,TQKF,≤ 0.25
2,IGWS,≤ 0.25
3,GNKM,≤ 0.25
4,EHVA,≤ 0.25
5,PMDR,≤ 0.25
6,STLC,13.2
7,SHER,≤ 0.25
8,VLMG,≤ 0.25
9,VSEP,≤ 0.25
10,SKLY,5.45
11,LFIM,≤ 0.25
12,NSAQ,≤ 0.25
13,MTCA,≤ 0.25
14,TSET,3.28
15,RLIP,≤ 0.25
16,LFYV,≤ 0.25
17,EAWS,≤ 0.25
18,SDIK,≤ 0.25
19,RQMF,≤ 0.25
20,VFAM,≤ 0.25
21,YQSM,≤ 0.25
22,GFTM,≤ 0.25
23,NTSF,≤ 0.25
24,NCYL,≤ 0.25
25,PTEE,≤ 0.25

row,Variant,enrichment ratio
1,IIFK,≤ 0.25
2,ALCL,9.88
3,IPVR,≤ 0.25
4,MGYK,≤ 0.25
5,MTYS,≤ 0.25
6,WHMG,≤ 0.25
7,IIIC,≤ 0.25
8,YMNF,≤ 0.25
9,PQQT,≤ 0.25
10,PWWD,≤ 0.25
11,MPWV,≤ 0.25
12,QGLM,3.62
13,SLAY,9.69
14,DSWC,≤ 0.25
15,AIRR,≤ 0.25
16,QCGL,4.14
17,QHRW,≤ 0.25
18,YMKT,≤ 0.25
19,FNDL,≤ 0.25
20,REPE,≤ 0.25
21,KAIF,≤ 0.25
22,SEFF,2.1
23,VRHH,≤ 0.25
24,DSSI,≤ 0.25
25,RQWF,≤ 0.25

row,Variant,enrichment ratio
1,RNDL,≤ 0.25
2,VEWM,1.2
3,VTFT,≤ 0.25
4,FNFS,≤ 0.25
5,SGMD,≤ 0.25
6,VRTK,≤ 0.25
7,SSHV,≤ 0.25
8,NFYP,≤ 0.25
9,IRQQ,≤ 0.25
10,LLMM,≤ 0.25
11,AAYI,0.507
12,EHNI,≤ 0.25
13,AMDP,≤ 0.25
14,MQWN,≤ 0.25
15,MIQP,≤ 0.25
16,ARVC,≤ 0.25
17,SDWC,≤ 0.25
18,LDSN,≤ 0.25
19,FRKK,≤ 0.25
20,VYKR,≤ 0.25
21,YTRT,0.581
22,GCDP,≤ 0.25
23,NMLE,≤ 0.25
24,SCMG,25.9
25,SSLL,19.9

row,Variant,enrichment ratio
1,NPRC,≤ 0.25
2,MFVT,≤ 0.25
3,FDWW,≤ 0.25
4,HWYL,≤ 0.25
5,GVVQ,≤ 0.25
6,QLSL,1.69
7,SKHW,≤ 0.25
8,TTMI,6.49
9,GSHT,≤ 0.25
10,LHRD,≤ 0.25
11,IDVM,≤ 0.25
12,MIHN,≤ 0.25
13,TPHE,≤ 0.25
14,APHV,≤ 0.25
15,KRNE,≤ 0.25
16,DRSF,≤ 0.25
17,LCPT,≤ 0.25
18,ILAF,≤ 0.25
19,PMPT,≤ 0.25
20,LVQM,≤ 0.25
21,LEMA,≤ 0.25
22,PMEW,≤ 0.25
23,PMHA,≤ 0.25
24,MMPF,≤ 0.25
25,GHDS,≤ 0.25

row,Variant,enrichment ratio
1,TTWH,8.79
2,KPHY,≤ 0.25
3,RNNV,≤ 0.25
4,QDVH,≤ 0.25
5,KHSR,≤ 0.25
6,ARGH,≤ 0.25
7,KYCK,≤ 0.25
8,YDAP,≤ 0.25
9,FEKI,≤ 0.25
10,TKRR,≤ 0.25
11,KSMF,≤ 0.25
12,HWDT,≤ 0.25
13,PART,≤ 0.25
14,KSVQ,≤ 0.25
15,PLIH,≤ 0.25
16,KTSD,≤ 0.25
17,ATQY,≤ 0.25
18,LWGG,≤ 0.25
19,AVPL,5.74
20,PMCR,≤ 0.25
21,FHNF,≤ 0.25
22,EAPT,≤ 0.25
23,MVHQ,≤ 0.25
24,LFLP,≤ 0.25
25,FPCV,≤ 0.25

row,Variant,enrichment ratio
1,WHVH,≤ 0.25
2,FATV,≤ 0.25
3,IWMH,≤ 0.25
4,VWVP,≤ 0.25
5,FARG,≤ 0.25
6,LKID,≤ 0.25
7,GIDC,≤ 0.25
8,EERN,≤ 0.25
9,KGRK,≤ 0.25
10,MASM,16.9
11,SSES,≤ 0.25
12,ILEC,≤ 0.25
13,QCSS,4.78
14,YSRR,≤ 0.25
15,DCAI,≤ 0.25
16,QIYR,≤ 0.25
17,SWML,≤ 0.25
18,FQIT,≤ 0.25
19,AHPW,≤ 0.25
20,FGTA,≤ 0.25
21,YWRG,≤ 0.25
22,KRIT,≤ 0.25
23,IVVQ,≤ 0.25
24,NVWD,≤ 0.25
25,RIWR,≤ 0.25

row,Variant,enrichment ratio
1,VPEW,≤ 0.25
2,PNVL,≤ 0.25
3,HGCR,≤ 0.25
4,QSEL,≤ 0.25
5,AAPI,4.19
6,NQET,≤ 0.25
7,HMWC,≤ 0.25
8,VHDY,≤ 0.25
9,HCPN,≤ 0.25
10,QTFF,2.95
11,ALVL,4.98
12,NSQD,≤ 0.25
13,TIHH,3.22
14,LTEK,≤ 0.25
15,PMRC,≤ 0.25
16,ECMW,≤ 0.25
17,IWHP,≤ 0.25
18,STDQ,≤ 0.25
19,FGSI,≤ 0.25
20,ESIG,≤ 0.25
